The values below come from publication PMC4450067 (PLoS Pathogens, 2015).

The test system of the assay is stress granules in BHK cells. It counts as cell-based.

On to `O=[As][O-].[Na+]` [sodium arsenite], for which the “cells with SGs upon sodium arsenite” value is “Approximately 97%”.
